# From the supplement of paper PMC8728848
# The other results are listed elsewhere or left out.
# B1: MSMEG3662-2a (Mycobacterium smegmatis), A0QYH7_MYCS2 (protein)
# chain: MGDTLTAGQKLERGGSLQSGNGAYTLTLQDDGNLVLYARDKAVWSTGTNGQDVVRAEVQTDGNFVLYTAEKPVWHTDTKGKKEVKLVLQDDRNLVLYAKDGPAWSSKTDTTEPPPPAPEPEKEAEVAPAAAEEAAPAPVAEPAPAEPAPAAPPPAPPAPRTYTVVSGDTLWAIAERFYGDGSKYQQIADASGIANPDLIHPGQVLTIP
# Columns and labels:
# Test in all cases: glycan array binding signal (z-score within array); higher = stronger binding
# Settings in all cases: glycan notation: IUPAC condensed, linker removed
# [1] = biological target: Gal3S(b1-3)[Fuc(a1-4)]GlcNAc
# How it was run: (§1)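 Negative Z-scores can be read as non-binding. The Z-score is calculated within each array and then averaged across arrays of one protein sequence at different concentrations or buffers and across linkers. Arrays, 3228 in all, were curated from the Consortium for Functional Glycomics database and kept only where the protein sequence was available.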
# [2] = biological target: Gal3S(b1-4)Glc
# How it was run: as §1
# [3] = biological target: Gal3S(b1-4)Glc6S
# How it was run: as §1
# [4] = biological target: Gal3S(b1-4)GlcNAc
# How it was run: as §1
# [5] = biological target: Gal3S(b1-4)[Fuc(a1-3)]Glc6S
# How it was run: as §1
# [6] = biological target: Gal3S(b1-4)[Fuc(a1-3)]GlcNAc
# How it was run: as §1
# [7] = biological target: Gal3S(b1-4)[Fuc(a1-3)]GlcNAc6S
# How it was run: as §1
# [8] = biological target: Gal3S4S(b1-4)GlcNAc
# How it was run: as §1
# [9] = biological target: Gal3S6S(b1-4)GlcNAc
# How it was run: as §1
# [10] = biological target: Gal3S6S(b1-4)GlcNAc6S
# How it was run: as §1
# [11] = biological target: Gal4S(b1-4)GlcNAc
# How it was run: as §1
# [12] = biological target: Gal4S6S(b1-4)GlcNAc
# How it was run: as §1
# [13] = biological target: Gal6P(b1-4)GlcNAc
# How it was run: as §1
# [14] = biological target: Gal6S(b1-3)GlcNAc
# How it was run: as §1
# [15] = biological target: Gal6S(b1-3)GlcNAc6S
# How it was run: as §1
# [16] = biological target: Gal6S(b1-4)Glc
# How it was run: as §1
# [17] = biological target: Gal6S(b1-4)Glc6S
# How it was run: as §1
# [18] = biological target: Gal6S(b1-4)GlcNAc
# How it was run: as §1
# [19] = biological target: Gal6S(b1-4)GlcNAc6S
# How it was run: as §1
# [20] = biological target: GalNAc(a1-3)Gal
# How it was run: as §1
# [21] = biological target: GalNAc(a1-3)GalNAc
# How it was run: as §1
# [22] = biological target: GalNAc(a1-3)GalNAc(b1-3)Gal(a1-4)Gal(b1-4)Glc
# How it was run: as §1
# [23] = biological target: GalNAc(a1-3)GalNAc(b1-3)Gal(a1-4)Gal(b1-4)GlcNAc
# How it was run: as §1
# [24] = biological target: GalNAc(b1-3)Gal
# How it was run: as §1
# [25] = biological target: GalNAc(b1-3)Gal(a1-4)Gal(b1-4)GlcNAc
# How it was run: as §1
# [26] = biological target: GalNAc(b1-3)Gal(a1-4)Gal(b1-4)GlcNAc(b1-3)Gal(b1-4)Glc
# How it was run: as §1
# [27] = biological target: GalNAc(b1-3)Gal(a1-6)Gal(b1-4)Glc
# How it was run: as §1
# [28] = biological target: GalNAc(b1-3)GalNAc
# How it was run: as §1
# [29] = biological target: GalNAc(b1-3)GlcNAc
# How it was run: as §1
# [30] = biological target: GalNAc(b1-4)Gal(b1-4)Glc
# How it was run: as §1
# [31] = biological target: GalNAc(b1-4)GlcNAc
# How it was run: as §1
# [32] = biological target: GalNAc(b1-4)GlcNAc(b1-2)Man
# How it was run: as §1
# [33] = biological target: GalNAc(b1-4)GlcNAc(b1-2)Man(a1-3)[GalNAc(b1-4)GlcNAc(b1-2)Man(a1-6)]Man(b1-4)GlcNAc(b1-4)GlcNAc
# How it was run: as §1
# [34] = biological target: GalNAc(b1-4)GlcNAc(b1-3)GalNAc(b1-4)GlcNAc
# How it was run: as §1
# [35] = biological target: GalNAc(b1-4)GlcNAc6S
# How it was run: as §1
# [36] = biological target: GalNAc(b1-6)GalNAc
# How it was run: as §1
# [37] = biological target: GalNAc3S(b1-4)GlcNAc
# How it was run: as §1
# [38] = biological target: GalNAc3S(b1-4)GlcNAc3S
# How it was run: as §1
# [39] = biological target: GalNAc3S(b1-4)[Fuc(a1-3)]GlcNAc
# How it was run: as §1
# [40] = biological target: GalNAc4S6S(b1-4)GlcNAc
# How it was run: as §1
# [41] = biological target: GalNAc6S(b1-4)GlcNAc
# How it was run: as §1
# [42] = biological target: Glc(a1-4)Glc
# How it was run: as §1
# [43] = biological target: Glc(a1-4)Glc(a1-4)Glc(a1-4)Glc
# How it was run: as §1
# [44] = biological target: Glc(a1-6)Glc(a1-6)Glc
# How it was run: as §1
# [45] = biological target: Glc(a1-6)Glc(a1-6)Glc(a1-6)Glc
# How it was run: as §1
binder,measurement,setting,value
B1,glycan array binding signal (z-score),[1],-0.161
same,glycan array binding signal (z-score),[2],-0.223
same,glycan array binding signal (z-score),[3],-0.107
same,glycan array binding signal (z-score),[4],0.048
same,glycan array binding signal (z-score),[5],-0.099
same,glycan array binding signal (z-score),[6],-0.064
same,glycan array binding signal (z-score),[7],-0.021
same,glycan array binding signal (z-score),[8],-0.136
same,glycan array binding signal (z-score),[9],0.105
same,glycan array binding signal (z-score),[10],-0.089
same,glycan array binding signal (z-score),[11],-0.184
same,glycan array binding signal (z-score),[12],0.015
same,glycan array binding signal (z-score),[13],-0.205
same,glycan array binding signal (z-score),[14],-0.134
same,glycan array binding signal (z-score),[15],-0.015
same,glycan array binding signal (z-score),[16],0.04
same,glycan array binding signal (z-score),[17],-0.137
same,glycan array binding signal (z-score),[18],-0.118
same,glycan array binding signal (z-score),[19],-0.162
same,glycan array binding signal (z-score),[20],-0.049
same,glycan array binding signal (z-score),[21],-0.185
same,glycan array binding signal (z-score),[22],-0.072
same,glycan array binding signal (z-score),[23],-0.099
same,glycan array binding signal (z-score),[24],-0.063
same,glycan array binding signal (z-score),[25],-0.177
same,glycan array binding signal (z-score),[26],-0.142
same,glycan array binding signal (z-score),[27],-0.074
same,glycan array binding signal (z-score),[28],-0.091
same,glycan array binding signal (z-score),[29],-0.175
same,glycan array binding signal (z-score),[30],-0.071
same,glycan array binding signal (z-score),[31],0.021
same,glycan array binding signal (z-score),[32],-0.076
same,glycan array binding signal (z-score),[33],-0.147
same,glycan array binding signal (z-score),[34],-0.047
same,glycan array binding signal (z-score),[35],-0.096
same,glycan array binding signal (z-score),[36],-0.152
same,glycan array binding signal (z-score),[37],-0.073
same,glycan array binding signal (z-score),[38],0.002
same,glycan array binding signal (z-score),[39],-0.193
same,glycan array binding signal (z-score),[40],0.137
same,glycan array binding signal (z-score),[41],-0.09
same,glycan array binding signal (z-score),[42],-0.086
same,glycan array binding signal (z-score),[43],-0.049
same,glycan array binding signal (z-score),[44],-0.136
same,glycan array binding signal (z-score),[45],-0.182
